Reference: the supplement of paper PMC11417369
This is one part of the list.

The sequences below were run on PF3D7_0420300 AP2 domain 1 (GST-tagged) (assay: gcPBM binding intensity (ln(normalized median fluorescence intensity)); higher = stronger DNA binding).
Outline: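 Binding intensity values are the highest Masliner-normalised natural-log median intensity among replicate spots of either probe orientation. The binding step lasted 1 h in 1× PBS with 1% milk, 0.2 mg/ml BSA, 0.5% salmon testes DNA and 0.03% Triton X-100, using GST-tagged P. falciparum DNA-binding domains expressed in E. coli on an Agilent 4 × 180k array of primer-extended double-stranded 36-bp intergenic genomic probes plus negative controls. Alexa488 anti-GST antibody and a 488 nm scan detected bound protein.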

Sequence | gcPBM binding intensity (ln)
CATATTTACTATCACACACACGATATATATAAATAT [CACACA_site1241] | 9.8
TTATACTAAATGAACACACACACATCTATATTTATA [CACACA_site6199] | 9.99
AATTAAAATAATAATACACACATCATAGAAAAAGAC [CACACA_site292] | 10.4
AAATTAGACTATAATACACACATAAAAAAAAAATCA [CACACA_site7672] | 9.72
AATTGGGTAGGACATGCATGAGAAATTAATATTGCA [TGCATGCA_site356] | 9.17
ATATATATATATATATGTACTAACCTTTTAAAATAT [XGTACX_site6488] | 9.04
AATCAAAGCCCACATACACACACATATATATATATA [CACACA_site7987] | 9.78
TATTACATTGTTGAATGTACTCATTTAAAATTTATA [XGTACX_site7987] | 9.04
ATGTCAAACATTTGCACACAAAAAAATAAAAATTAA [CACACA_site692] | 9.29
TTTTTCTTAAAAAATTGTACACATATATATATATAT [XGTACX_site542] | 9.11
ATTAAGTTAAACATTACACACTATGTATTATTTATG [CACACA_site973] | 9.52
TTTTTTTTTTTTAATACACACATATTTATATTTATT [CACACA_site7802] | 9.46
TAATATTATTTAGAGTGTACTCATAAATCAACAAAA [XGTACX_site5269] | 9.08
ATATAGAACACCTGTGCATGCAAGTGCTAAAAAATT [TGCATGCA_site213] | 9.43
CTATTTTTATATTATTGTACGTTGTTATTATATATA [XGTACX_site1469] | 9.63
CTAAGCTAAGTAAGCTGTACTTCACCTTTATACAGT [XGTACX_site3087] | 9.06
TTTATATTTATATATACACACATATACATCCTATTT [CACACA_site3079] | 9.67
ATATATATGGAAACAGTGCAATACATATATATATAT | 9.71
CACATACAGACATACACACATACACATATACGCATA [CACACA_site1745] | 9.86
TCTGTATATTTCGCGCGTACGAACAAATTGATAATT [XGTACX_site7965] | 9.26
ATATAATATGGTATTACACACTGTTAAAAGTATGGC [CACACA_site5190] | 9.5
ATATATATTTTTATAACACACAATGAAGTACATTAC [CACACA_site8270] | 9.42
AAACAATAAAAGATTACACACATATATAGCATCTAT [CACACA_site5012] | 9.74

Sequence | gcPBM binding intensity (ln)
TTTCATTTGTCGTTATGTACTTATTAAATATTATTA [XGTACX_site7709] | 9.46
TAAAGTAAAGACATACTTATTTTCCATCCACTTCTT [CACACA_negctrl_site1288] | 9.28
CATAAATAAGCTTTAGTGCATTATATTTAAATTTTT | 8.97
ATAAAATGAACCTTTTGTACATATATATATATATAT [XGTACX_site4610] | 9.09
ATATTATATATATATAAACACACAAATATTTTTATA [CACACA_site8486] | 9.35
AACATCTCATATCGTACTACACTCATATATATATAT [XGTACX_site170] | 9.66
TGAATATTTCTATATACACACATATATATATATATA [CACACA_site3451] | 9.34
TTTAATAATAATAAAAGTACACAAATATAAAGGAAA [XGTACX_site5203] | 9.48
AGGTTTTCTTAAATAGTGCATTATAACAAAAATAAA | 8.94
TCACGTATGTATATTACACACATACATATTATTCAC [CACACA_site4276] | 9.58
ATATATATAAAATGTTGTACATATATATAAATAATA [XGTACX_site1661] | 9.16
CTAAAATACAGACACACACACACATATATATATATA [CACACA_site4150] | 9.93
TTAAAATAGGGCGAAGAAATTTTCTGTAAACATTTG [CACACA_negctrl_site1010] | 9.01
ATATGCTTATATTATATATATAAGTCTATATATTTT [XGTACX_negctrl_site349] | 9.18
GGGTTTTTAAAATGTAGTACATATGTAAACATCAAA [XGTACX_site1262] | 9.05
ATTTGAAATTGGTAGACACACAATAAAATATCAAAA [CACACA_site447] | 9.27
AAAAAGTTATTATGAACACACATTTATTATAGTCAT [CACACA_site6838] | 9.37
CATATAAATATTTGTGCACACAATTATTAATAATTA [CACACA_site3884] | 9.35
TTAAACTTGAGACACACACACACACGGATATAAAAA [CACACA_site6495] | 10.2
CTTTTATTCAAAAGATGTACTTAAATATATATCTAA [XGTACX_site4326] | 8.8
TGCAGTCTGGAGAAACGTACACAGTATCTGGTAACA [XGTACX_site2014] | 9.18
ATGTGTATAATTAAATGTACATATATATATATATAT [XGTACX_site829] | 9.52
